In data set [1] the test system is HeLa Kyoto. In words: melting temperature (median over replicates), in situ; higher = more thermally stable.
For data set [2], the system named is HeLa Kyoto. The data set can be described thus: solubility in G1/S (NP-40 vs SDS abundance) (log2 ratio); higher = more soluble. The following applies: cell cycle stage: G1/S.
Data set [3] concerns HeLa Kyoto. In words: solubility change mitosis vs G1/S (difference of NP-40 vs SDS log2 ratios) (log2 ratio difference); higher = more soluble in mitosis.
Data set [4] relates to HeLa Kyoto. In words: thermal stability score vs G1/S (z-score of summed log2 fold changes over temperatures); higher = more thermally stable than in G1/S.
Where [5] appears, read: cell cycle stage: early G1 (4.5 h after nocodazole release).
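Throughout, for melting temperature (median over replicates), in situ: HeLa Kyoto cells synchronized by double thymidine or nocodazole block, proteins quantified by TMT10plex mass spectrometry, three independent biological replicates.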
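Throughout, for solubility change mitosis vs G1/S (difference of NP-40 vs SDS log2 ratios): synchronized HeLa Kyoto cells (double thymidine block for G1/S, nocodazole release for mitosis), protein amounts in NP-40 versus SDS lysates quantified by mass spectrometry, three biological replicates.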
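Throughout, for solubility in G1/S (NP-40 vs SDS abundance): HeLa Kyoto cells arrested at G1/S by double thymidine block, proteins quantified by TMT10plex mass spectrometry in mild NP-40 versus SDS extracts, three biological replicates.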
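Throughout, for thermal stability score vs G1/S (z-score of summed log2 fold changes over temperatures): synchronized HeLa Kyoto cells, proteins quantified by TMT10plex mass spectrometry, three biological replicates, mitosis taken 0.5 h after nocodazole release, G1/S directly after double thymidine block.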

As for EZR (sequence left out), the melting temperature in the data set on HeLa Kyoto [1] (cell cycle stage: G1/S) was 52.8 °C; with HeLa Kyoto [1] (cell cycle stage: mitosis) it was 52.2 °C. The “solubility in G1/S (log2)” value in the data set on HeLa Kyoto [2] was found to be 0.0636. Also, the “solubility change mitosis (log2)” value in the data set with HeLa Kyoto [3] is -0.00638. For the same substance, the thermal stability score was -0.195 in the data set with HeLa Kyoto [4] (setting [5]) and -0.244 with HeLa Kyoto [4] (cell cycle stage: mitosis).
On to GBF1 (sequence left out), for which the melting temperature worked out at 50.5 °C in the data set on HeLa Kyoto [1] (cell cycle stage: G1/S) and 49.9 °C in the data set on HeLa Kyoto [1] (cell cycle stage: mitosis). The “solubility in G1/S (log2)” value with HeLa Kyoto [2] was -0.139. Further, in the data set on HeLa Kyoto [3], the “solubility change mitosis (log2)” value was -0.107. Also, the thermal stability score with HeLa Kyoto [4] (setting [5]) was -1.15; in the data set on HeLa Kyoto [4] (cell cycle stage: mitosis), -0.203.
As to “MDKFWWHAAWGLCLVPLSLA[skipping about 200 residues]ATTLMSTSATATETATKRQETWDWFSWLFLPSESKNHLHTTTQMAGTSSNTISAGWEPNEENEDERDRHLSFSGSGIDDDEDFISSTISTTPRAFDHTKQNQDWTQWNPSHSNPEVLLQTTTRMTDVDRNGTTAYEGNWNPEAHPPLIHHEHHEEEETPHSTSTIQATPSSTTEETATQKEQWFGNRWHEGYRQTPKEDSHSTTGTAAASAHTSHPMQGRTTPSPEDSSWTDFFNPISHPMGRGHQAGRRMDMDSSHSITLQPTANPNTGLVEDLDRTGPLSMTTQQSNSQSFSTSHEGLEEDKDHPTTSTLTSSNRNDVTGGRRDPNHSEGSTTLLEGYTSHYPHTKESRTFIPVTSAKTGSFGVTAVTVGDSNSNVNRSLSGDQDTFHPSGGSHTTHGSESDGHSHGSQEGGANTTSGPIRTPQIPEWLIILASLLALALILAVCIAVNSRRRCGQKKKLVINSGNGAVEDRKPSGLNGEASKSQEMVHLVNKESSETPDQFMTADETRNLQNVDMKIGV [CD44]”, the melting temperature was determined as 61.8 °C with HeLa Kyoto [1] (cell cycle stage: G1/S) and 66.3 °C with HeLa Kyoto [1] (cell cycle stage: mitosis). Also, the “solubility in G1/S (log2)” value in the data set with HeLa Kyoto [2] was -0.117. The “solubility change mitosis (log2)” value in the data set with HeLa Kyoto [3] was 0.0127. The thermal stability score with HeLa Kyoto [4] (setting [5]) is -2.25; in the data set on HeLa Kyoto [4] (cell cycle stage: mitosis), -2.31.
As to “MLEICLKLVGCKSKKGLSSSSSCYLEEALQRPVASDFEPQGLSEAARWNSKENLLAGPSE[skipping about 60 residues]LEKHSWYHGPVSRNAAEYLLSSGINGSFLVRESESSPGQRSISLRYEGRVYHYRINTASDGKLYVSSESRFNTLAELVHHHSTVADGLITTLHYPAPKRNKPTVYGVSPNYDKWEMERTDITMKHKLGGGQYGEVYEGVWKKYSLTVAVKTLKEDTMEVEEFLKEAAVMKEIKHPNLVQLLGVCTREPPFYIITEFMTYGNLLDYLRECNRQEVNAVVLLYMATQISSAMEYLEKKNFIHRDLAARNCLVGENHLVKVADFGLSRLMTGDTYTAHAGAKFPIKWTAPESLAYNKFSIKSDVWAFGVLLWEIATYGMSPYPGIDLSQVYELLEKDYRMERPEGCPEKVYELMRACWQWNPSDRPSFAEIHQAFETMFQESSISDEVEKELGKQGVRGAVSTLLQAPELPTKTRTSRRAAEHRDTTDVPEMPHSKGQGESDPLDHEPAVSPLLPRKERGPPEGGLNEDERLLPKDKKTNLFSALIKKKKKTAPTPPKRSSSFREMDGQPERRGAGEEEGRDISNGALAFTPLDTADPAKSPKPSNGAGVPNGALRESGGSGFRSPHLWKKSSTLTSSRLATGEEEGGGSSSKRFLRSCSASCVPHGAKDTEWRSVTLPRDLQSTGRQFDSSTFGGHKSEKPALPRKRAGENRSDQVTRGTVTPPPRLVKKNEEAADEVFKDIMESSPGSSPPNLTPKPLRRQVTVAPASGLPHKEEAGKGSALGTPAAAEPVTPTSKAGSGAPGGTSKGPAEESRVRRHKHSSESPGRDKGKLSRLKPAPPPPPAASAGKAGGKPSQSPSQEAAGEAVLGAKTKATSLVDAVNSDAAKPSQPGEGLKKPVLPATPKPQSAKPSGTPISPAPVPSTLPSASSALAGDQPSSTAFIPLISTRVSLRKTRQPPERIASGAITKGVVLDSTEALCLAISRNSEQMASHSAVLEAGKNLYTFCVSYVDSIQQMRNKFAFREAINKLENNLRELQICPATAGSGPAATQDFSKLLSSVKEISDIVQR [ABL1]”, the melting temperature with HeLa Kyoto [1] (cell cycle stage: G1/S) amounted to 48.5 °C; in the data set on HeLa Kyoto [1] (cell cycle stage: mitosis), 50.3 °C. The “solubility in G1/S (log2)” value in the data set on HeLa Kyoto [2] is -0.0433. Also, the “solubility change mitosis (log2)” value in the data set with HeLa Kyoto [3] was 0.0814. The results for the thermal stability score in the data set on HeLa Kyoto [4] (setting [5]) and in the data set on HeLa Kyoto [4] (cell cycle stage: mitosis) were 0.319 and 0.808, respectively.
Regarding MSLN (sequence left out), the melting temperature with HeLa Kyoto [1] (cell cycle stage: G1/S) was found to be 54.2 °C; in the data set on HeLa Kyoto [1] (cell cycle stage: mitosis) it was 53.7 °C. In addition, the “solubility in G1/S (log2)” value in the data set with HeLa Kyoto [2] is 0.271. In addition, in the data set on HeLa Kyoto [3], the “solubility change mitosis (log2)” value was determined as 0.12. For the same substance, the results for the thermal stability score in the data set with HeLa Kyoto [4] (setting [5]) and with HeLa Kyoto [4] (cell cycle stage: mitosis) were -0.135 and -0.382, respectively.
Consider NCAPD2 (sequence left out), for which the melting temperature in the data set on HeLa Kyoto [1] (cell cycle stage: G1/S) was found to be 49.2 °C; in the data set with HeLa Kyoto [1] (cell cycle stage: mitosis), 48.9 °C. Further, the “solubility in G1/S (log2)” value in the data set on HeLa Kyoto [2] is -0.161. The “solubility change mitosis (log2)” value in the data set with HeLa Kyoto [3] was -0.0444. Moreover, the thermal stability score stood at 0.0891 in the data set with HeLa Kyoto [4] (setting [5]) and 2.02 with HeLa Kyoto [4] (cell cycle stage: mitosis).
Take NCOR2: the melting temperature in the data set on HeLa Kyoto [1] (cell cycle stage: G1/S) was 48.7 °C; with HeLa Kyoto [1] (cell cycle stage: mitosis), 51.4 °C. For the same substance, the “solubility in G1/S (log2)” value in the data set with HeLa Kyoto [2] was found to be 0.0268. Also, the “solubility change mitosis (log2)” value in the data set with HeLa Kyoto [3] is -0.0056. The values for the thermal stability score with HeLa Kyoto [4] (setting [5]) and with HeLa Kyoto [4] (cell cycle stage: mitosis) were -0.00372 and 6.48, respectively.
In the case of NDUFS2 (sequence left out), the melting temperature with HeLa Kyoto [1] (cell cycle stage: G1/S) and in the data set on HeLa Kyoto [1] (cell cycle stage: mitosis) was 52.3 °C each time. For the same substance, the “solubility in G1/S (log2)” value with HeLa Kyoto [2] was -0.138. Besides, the “solubility change mitosis (log2)” value with HeLa Kyoto [3] was -0.143. For the same substance, the thermal stability score in the data set with HeLa Kyoto [4] (setting [5]) was 0.0241; with HeLa Kyoto [4] (cell cycle stage: mitosis), -0.281.
For NDUFS6 (sequence left out), the figures for the melting temperature in the data set with HeLa Kyoto [1] (cell cycle stage: G1/S) and with HeLa Kyoto [1] (cell cycle stage: mitosis) were 56.2 °C and 52.4 °C, respectively. The “solubility in G1/S (log2)” value in the data set with HeLa Kyoto [2] was determined as 0.246. Further, the “solubility change mitosis (log2)” value in the data set with HeLa Kyoto [3] amounted to 0.126. Further, the results for the thermal stability score with HeLa Kyoto [4] (setting [5]) and with HeLa Kyoto [4] (cell cycle stage: mitosis) were -2.28 and -2.51, respectively.
Take SH3KBP1 (sequence left out): the melting temperature in the data set on HeLa Kyoto [1] (cell cycle stage: G1/S) amounted to 52.5 °C; in the data set on HeLa Kyoto [1] (cell cycle stage: mitosis) it was 52.4 °C. Moreover, the “solubility in G1/S (log2)” value with HeLa Kyoto [2] was 0.347. Further, in the data set with HeLa Kyoto [3], the “solubility change mitosis (log2)” value was -0.0457. The thermal stability score is 0.232 with HeLa Kyoto [4] (setting [5]) and 0.718 in the data set on HeLa Kyoto [4] (cell cycle stage: mitosis).
Take TBC1D9B (sequence left out): the melting temperature with HeLa Kyoto [1] (cell cycle stage: G1/S) came to 50.2 °C; with HeLa Kyoto [1] (cell cycle stage: mitosis) it was 50.6 °C. The “solubility in G1/S (log2)” value in the data set on HeLa Kyoto [2] is -0.0909. Also, the “solubility change mitosis (log2)” value with HeLa Kyoto [3] is -0.183. For the same substance, the thermal stability score with HeLa Kyoto [4] (setting [5]) is 0.53; in the data set on HeLa Kyoto [4] (cell cycle stage: mitosis), 0.989.
In the case of UBA5 (sequence left out), the melting temperature in the data set with HeLa Kyoto [1] (cell cycle stage: G1/S) was determined as 53.8 °C; with HeLa Kyoto [1] (cell cycle stage: mitosis), 53.9 °C. The “solubility in G1/S (log2)” value in the data set on HeLa Kyoto [2] was 0.0904. In addition, the “solubility change mitosis (log2)” value with HeLa Kyoto [3] is -0.158. The thermal stability score in the data set with HeLa Kyoto [4] (setting [5]) was 1.63; with HeLa Kyoto [4] (cell cycle stage: mitosis), -0.14.
Turning to UBE2L3 (sequence left out), the melting temperature is 54.8 °C with HeLa Kyoto [1] (cell cycle stage: G1/S) and 53.4 °C in the data set on HeLa Kyoto [1] (cell cycle stage: mitosis). In the data set on HeLa Kyoto [2], the “solubility in G1/S (log2)” value was 0.828. In the data set on HeLa Kyoto [3], the “solubility change mitosis (log2)” value came to 0.438. Also, the thermal stability score is -2.33 with HeLa Kyoto [4] (setting [5]) and -4.07 with HeLa Kyoto [4] (cell cycle stage: mitosis).
For the substance “[skipping about 200 residues]VQCKVTLLDGTEYSCDLEKHAKGQVLFDKVCEHLNLLEKDYFGLLFQESPEQKNWLDPAKEIKRQLRNLPWLFTFNVKFYPPDPSQLTEDITRYFLCLQLRQDIASGRLPCSFVTHALLGSYTLQAELGDYDPEEHGSIDLSEFQFAPTQTKELEEKVAELHKTHRGLSPAQADSQFLENAKRLSMYGVDLHHAKDSEGVDIKLGVCANGLLIYKDRLRINRFAWPKILKISYKRSNFYIKVRPAELEQFESTIGFKLPNHRAAKRLWKVCVEHHTFYRLVSPEQPPKAKFLTLGSKFRYSGRTQAQTRQASTLIDRPAPHFERTSSKRVSRSLDGAPIGVMDQSLMKDFPGAAGEISAYGPGLVSIAVVQDGDGRREVRSPTKAPHLQLIEGKKNSLRVEGDNIYVRHSNLMLEELDKAQEDILKHQASISELKRNFMESTPEPRPNEWEKRRITPLSLQTQGSSHETLNIVEEKKRAEVGKDERVITEEMNGKEISPGSGPGEIRKVEPVTQKDSTSLSSESSSSSSESEEEDVGEYRPHHRVTEGTIREEQEYEEEVEEEPRPAAKVVEREEAVPEASPVTQAGASVITVETVIQENVGAQKIPGEKSVHEGALKQDMGEEAEEEPQKVNGEVSHVDIDVLPQIICCSEPPVVKTEMVTISDASQRTEISTKEVPIVQTETKTITYESPQIDGGAGGDSGTLLTAQTITSESVSTTTTTHITKTVKGGISETRIEKRIVITGDGDIDHDQALAQAIREAREQHPDMSVTRVVVHKETELAEEGED [EPB41L2]”, the melting temperature in the data set with HeLa Kyoto [1] (cell cycle stage: G1/S) and with HeLa Kyoto [1] (cell cycle stage: mitosis) was 51.9 °C each time. Also, the “solubility in G1/S (log2)” value with HeLa Kyoto [2] is -0.0395. For the same substance, the “solubility change mitosis (log2)” value in the data set on HeLa Kyoto [3] was -0.035. For the same substance, the thermal stability score is -0.758 in the data set on HeLa Kyoto [4] (setting [5]) and -0.0297 in the data set on HeLa Kyoto [4] (cell cycle stage: mitosis).
